Results are given in words; binding and its absence hold for the method and conditions named. In cells and extracts the contact can be indirect. Some entries that bind do so weakly or less than the wild type. Sequences can lack the tags named with a protein.

Chains of the proteins cited; added tags and fusions are not shown.
UniProt P51617: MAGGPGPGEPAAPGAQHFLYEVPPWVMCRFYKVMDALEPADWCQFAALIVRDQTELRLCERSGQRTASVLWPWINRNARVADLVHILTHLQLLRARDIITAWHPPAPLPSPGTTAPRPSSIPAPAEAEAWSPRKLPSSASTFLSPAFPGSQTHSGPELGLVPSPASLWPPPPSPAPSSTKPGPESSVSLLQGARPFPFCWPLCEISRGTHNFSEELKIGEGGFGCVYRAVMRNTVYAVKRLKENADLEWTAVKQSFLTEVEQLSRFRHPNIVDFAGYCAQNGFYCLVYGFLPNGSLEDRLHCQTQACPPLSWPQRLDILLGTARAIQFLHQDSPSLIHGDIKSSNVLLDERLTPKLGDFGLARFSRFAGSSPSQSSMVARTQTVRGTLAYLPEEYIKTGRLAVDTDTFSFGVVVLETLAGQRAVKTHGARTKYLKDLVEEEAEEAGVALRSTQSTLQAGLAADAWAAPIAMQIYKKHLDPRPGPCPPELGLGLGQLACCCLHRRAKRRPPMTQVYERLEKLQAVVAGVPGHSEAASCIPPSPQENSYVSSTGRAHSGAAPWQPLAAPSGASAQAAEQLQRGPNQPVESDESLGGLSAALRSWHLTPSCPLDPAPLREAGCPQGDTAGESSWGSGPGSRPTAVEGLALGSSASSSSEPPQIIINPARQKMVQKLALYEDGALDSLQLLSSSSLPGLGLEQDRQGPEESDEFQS
UniProt Q99836: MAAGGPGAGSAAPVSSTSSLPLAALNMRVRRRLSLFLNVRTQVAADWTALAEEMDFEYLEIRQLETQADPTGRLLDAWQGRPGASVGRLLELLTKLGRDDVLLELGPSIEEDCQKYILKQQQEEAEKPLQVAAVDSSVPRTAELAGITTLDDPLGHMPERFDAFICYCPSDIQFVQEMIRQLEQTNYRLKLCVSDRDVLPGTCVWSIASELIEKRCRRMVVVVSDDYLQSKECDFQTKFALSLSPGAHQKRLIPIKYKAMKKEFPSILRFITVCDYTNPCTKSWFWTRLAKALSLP
UniProt Q13485: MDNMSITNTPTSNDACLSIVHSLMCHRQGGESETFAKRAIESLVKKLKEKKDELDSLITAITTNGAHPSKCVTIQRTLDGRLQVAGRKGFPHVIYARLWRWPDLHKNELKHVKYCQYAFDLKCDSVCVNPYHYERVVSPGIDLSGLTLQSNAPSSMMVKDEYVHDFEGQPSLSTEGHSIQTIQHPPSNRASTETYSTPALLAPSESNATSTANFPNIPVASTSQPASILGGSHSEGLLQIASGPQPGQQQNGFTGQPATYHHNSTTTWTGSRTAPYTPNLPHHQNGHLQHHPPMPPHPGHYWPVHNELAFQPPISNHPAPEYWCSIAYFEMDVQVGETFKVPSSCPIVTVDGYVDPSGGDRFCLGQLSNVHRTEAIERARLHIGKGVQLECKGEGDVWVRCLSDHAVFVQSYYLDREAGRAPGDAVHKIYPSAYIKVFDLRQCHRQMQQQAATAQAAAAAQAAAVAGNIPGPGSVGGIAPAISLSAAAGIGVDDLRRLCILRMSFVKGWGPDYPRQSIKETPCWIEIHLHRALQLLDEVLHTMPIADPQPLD

Here are results for one molecule from publication PMC4492818.

Targets include Flag-IRAK1 (UniProt P51617); Flag-MyD88 (UniProt Q99836); HA-Smad4 (UniProt Q13485).
Holding throughout (assay): co-IP; plasmids co-transfected into HEK293 cells; lysates (PBS, 0.5% Triton X-100, 20 mM HEPES pH 7.4, 150 mM NaCl) immunoprecipitated with anti-HA, anti-Myc or the indicated antibodies and protein A/G agarose at 4°C for 12 h; immunoblot with anti-Myc or anti-HA
(In western blotting, separated proteins are transferred to a membrane and probed.)

Assay [1] has as its target T1, HA-Pellino-1 (full-length Pellino-1) (UniProt Q96FA3).
T1 sequence: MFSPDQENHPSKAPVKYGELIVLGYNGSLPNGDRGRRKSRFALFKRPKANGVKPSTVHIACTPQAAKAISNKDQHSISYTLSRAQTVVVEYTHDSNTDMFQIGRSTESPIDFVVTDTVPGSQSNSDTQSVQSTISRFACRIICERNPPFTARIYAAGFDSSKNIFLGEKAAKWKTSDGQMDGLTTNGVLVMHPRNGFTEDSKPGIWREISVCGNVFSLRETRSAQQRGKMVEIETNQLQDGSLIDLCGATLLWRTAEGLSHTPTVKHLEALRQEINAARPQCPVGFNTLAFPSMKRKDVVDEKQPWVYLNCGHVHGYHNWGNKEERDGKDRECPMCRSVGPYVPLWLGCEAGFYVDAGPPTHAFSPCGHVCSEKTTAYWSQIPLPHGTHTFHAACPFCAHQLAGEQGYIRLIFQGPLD

B1: Myc-Smad6 422-441 (domain or fragment, UniProt O43541 422-441)
chain: GRALVVRKVPPGYSIKVFDF
As to B1, the binding result with Flag-IRAK1 is reported as “no binding”; with Flag-MyD88, “no binding”; in assay [1], “binds”; with HA-Smad4, “no binding”.
